Assay results reported in PubChem BioAssay AID1466 (National Center for Advancing Translational Sciences (NCATS), 2008).
About 10 (0.005%) of roughly 200,000 compounds were called active. The shares of active, inactive and inconclusive entries below differ from those in the screen. Calls come from the whole dose curve; as a rule, active = well fitted inhibition curve with a large enough effect; inconclusive = small, poorly fitted or top-dose-only effect, or effect the other way, or another doubt; inactive = no such curve, though single readings can be large or run the other way. Potencies of inconclusive entries are doubtful fits and often do not repeat.

molecular target: Lysosomal alpha-glucosidase (Homo sapiens) (UniProt P10253); test: qHTS Assay for Inhibitors of Human alpha-Glucosidase as a Potential Chaperone Treatment of Pompe Disease; details: purified human GAA, 4-MU-alpha-glucoside fluorescence; activity change, negative = inhibition: at 76.9 µM (top of the series) unless noted;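 for activity change, negative = inhibition: plate controls were uninhibited enzyme wells for no effect and no-enzyme background for full effect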
Method in brief: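 Human alpha-glucosidase, 4 nM, pre-mixed with test compounds before 400 uM 4-methylumbelliferyl substrate; 20 min room temperature at pH 5.0. Fluorescence read after pH 10 stop; AC50 values from Hill-equation fits.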
Potency is the fitted concentration of half-maximal effect; tags give direction and shape of the fitted curve.

Row | SMILES | Potency | activity change, negative = inhibition
1 | Cc1cc(=O)[nH]c(SCC(=O)Nc2ccc(Br)cc2)c1C#N | inconclusive: 28.2 µM [inhibitor, partial curve] | –
2 | O=S(=O)(Nc1c(S(=O)(=O)c2ccccc2)c2nc3ccccc3nc2n1C1CCCCC1)c1ccccc1 | inconclusive: 39.8 µM [activator, partial curve] | –
3 | COc1ccc(-c2ccc(=O)n(CC(=O)Nc3ccc(C(=O)NC4CC4)cc3)n2)cc1OC | – | inactive: -14.2%
4 | O=c1[nH]ncc(N/N=C\c2ccc(O)cc2O)c1Cl | – | inactive: -10%
5 | COc1ccc(OCCn2cc(/C(N)=N/O)c3ccccc32)cc1 | inconclusive: 31.6 µM [inhibitor, single point] | –
6 | CC(=O)c1cc(NC(=O)c2ccc(Cl)cc2)c(=O)oc1/C=C/N(C)C | inconclusive: 6.31 µM [inhibitor, single point] | –
7 | COC(=O)C1CCN(C(=O)c2ccccc2Oc2ccccc2)CC1 | inconclusive: 0.794 µM [inhibitor, full curve, poor fit] | –
8 | Oc1ccc(NC(=S)Nc2ccccc2)cc1 | – | inactive: 3.27%
9 | COc1ccc(CCNC(=O)C(=O)N/N=C/c2cccs2)cc1OC | inconclusive: 4.47 µM [inhibitor, single point] | –
10 | CCOc1ccc(C(=O)NCC(=O)OC(C)C(=O)NCc2ccco2)cc1OCC (configuration not stated) | – | inconclusive: -18.5% [inhibitor] [at 15.4 µM]
11 | CCOC(=O)C1=CN(C)C=C(C(=O)OCC)C1c1ccsc1 | inconclusive: 31.6 µM [activator, partial curve] | –
12 | CSc1nc2nc3c(cc2c(=O)[nH]1)C(O)Oc1ccc(C)cc1-3 (configuration not stated) | – | inconclusive: 15.7% [activator]
13 | Cc1ccc(NC(=O)CS(=O)CC(=O)N(c2ccccc2)C(C)C(=O)NC2CCCC2)cc1 (configuration not stated) | inconclusive: 39.8 µM [inhibitor, partial curve, poor fit] | –
14 | Cc1cc(C)c(C)c(S(=O)(=O)NCCCN2CCOCC2)c1C | – | inconclusive: 17.5% [activator]
15 | Cc1ccc(-c2ccc(NC(=O)C3C4C=CC(C4)C3C(=O)O)cc2)o1 (configuration not stated) | – | inactive: 6.78%
16 | COc1ccc(S(=O)(=O)N2CCCC(C(=O)NCc3ccco3)C2)cc1Cl (configuration not stated) | inconclusive: 50.1 µM [inhibitor, single point] | –
17 | CCCN(Cc1cc2cc(OC)ccc2[nH]c1=O)C(=O)c1ccncc1 | inconclusive: 50.1 µM [activator, single point] | –
18 | O=C(Cn1nc(-c2cccc(Cl)c2)ccc1=O)Nc1ccccc1Br | inconclusive: 0.178 µM [activator, full curve, poor fit] | –
19 | COc1ccc(C(=O)C2CCCN(C(=O)c3cccnc3SC)C2)c(C)c1 (configuration not stated) | inconclusive: 3.98 µM [activator, single point] | –
20 | CCN(CC)S(=O)(=O)c1ccc(N2CCCC2)c(C(=O)OCC(=O)N2CCCC2)c1 | – | inconclusive: -16.1% [inhibitor]
21 | Cc1[nH]c2ccccc2c1C(c1ccccn1)c1c(C)[nH]c2ccccc12 | inconclusive: 10 µM [inhibitor, full curve] | –

Row | SMILES | Potency | activity change, negative = inhibition
22 | O=C(Cn1cnc2nc3n(c2c1=O)CCC3)NCc1ccccc1 | inconclusive: 3.55 µM [inhibitor, single point] | –
23 | COc1cc(C2CC(=O)Oc3c2c(=O)n(C)c2ccccc32)cc(OC)c1OC (configuration not stated) | – | inconclusive: 21.6% [activator]
24 | CCOC(=O)C1=C(CSc2nncn2C)NC(=O)NC1c1cc(OCC)ccc1OCC (configuration not stated) | – | inconclusive: 9.29% [activator]
25 | COc1cc(NC(=O)CSc2nnc3c(C)cc4cc(C)cc(C)c4n23)c(C(=O)O)cc1OC | inconclusive: 15.8 µM [inhibitor, partial curve] | –
26 | O=c1c(=Nc2ccccc2O)c(=O)c2ccccc12 | – | inactive: 3.58%
27 | COc1cc2c(cc1NC(=O)C1CCCO1)oc1ccccc12 (configuration not stated) | inconclusive: 39.8 µM [inhibitor, single point] | –
28 | CC(=O)c1cnc2nc(C(F)(F)F)nn2c1C | – | inactive: -4.47%
29 | Cn1c(=O)n(C/C=C/c2ccccc2)c(=O)c2c1nc1n2CCCN1Cc1ccccc1 | inconclusive: 10 µM [inhibitor, full curve, poor fit] | –
30 | Cc1ccc(-c2nc(C3CCCN(S(=O)(=O)c4ccc(C)cc4)C3)no2)cc1 (configuration not stated) | inconclusive: 3.16 µM [inhibitor, full curve, poor fit] | –
31 | NS(=O)(=O)c1ccc(NC(=O)c2c(Cl)cccc2Cl)cc1 | – | inconclusive: 20.2% [activator]
32 | COC(=O)CCCCCNc1ccc(C(=O)OC)cc1N | inconclusive: 7.08 µM [inhibitor, full curve, poor fit] | –
33 | Cc1cc(Cl)ccc1NC(=O)Cn1cncn1 | – | inactive: -0.761%
34 | N#Cc1c(C(F)(F)F)cc(-c2ccccc2Cl)[nH]c1=O | inconclusive: 35.5 µM [activator, single point] | –
35 | Cc1ccc(C)c(-n2cc(-c3ccc(Cl)cc3)nc2SCC(=O)NC2CCS(=O)(=O)C2)c1 (configuration not stated) | inconclusive: 31.6 µM [inhibitor, single point] | –
36 | Fc1cccc(-c2cc3nc(-c4ccccc4)cc(N4CCC5(CC4)OCCO5)n3n2)c1 | inconclusive: 50.1 µM [activator, single point] | –
37 | CCOC(=O)CCSc1nc(-c2ccc3c(c2)OCO3)cc(C(F)(F)F)c1C#N | inconclusive: 3.98 µM [activator, partial curve] | –
38 | Cc1ccc2cc(CN(CC3CCCO3)S(=O)(=O)c3ccccc3)c3nnnn3c2c1 (configuration not stated) | inconclusive: 56.2 µM [inhibitor, single point] | –
39 | CN(C)CCNC(=O)c1coc(=O)c(Br)c1 | inconclusive: 44.7 µM [activator, single point] | –
40 | Cc1c(C(=O)N2CCN(c3cccc(Cl)c3)CC2)cccc1[N+](=O)[O-] | – | inconclusive: 8.22% [activator]
41 | Cc1cc(NC(=O)c2ccccc2Oc2ccccc2)no1 | inconclusive: 28.2 µM [inhibitor, partial curve, poor fit] | –
42 | O=P(c1ccccc1)(c1ccccc1)C1CCCO1 (configuration not stated) | inconclusive: 0.794 µM [inhibitor, full curve, poor fit] | –
